The other results are listed elsewhere or left out.
T1: UNK ZnF1-3 (human, UniProt Q9C0B0 31-174)
T1 sequence: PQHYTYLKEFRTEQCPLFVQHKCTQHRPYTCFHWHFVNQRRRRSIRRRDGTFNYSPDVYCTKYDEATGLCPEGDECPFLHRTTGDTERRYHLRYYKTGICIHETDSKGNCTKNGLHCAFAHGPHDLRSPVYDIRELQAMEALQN

B1: chr18:34758715:34758716:-_ENSMUSG00000003778_ENSMUST00000003876|mus_mus|motif|central (ssRNA)
RNA: GGGAGUUCUACAGUCCGACGAUCACUGGUAUGUGUUUCCAUGGGAUUUCUUUCUCCCAGCACUGGCAAUUGACAAGGAAACGGGCCAAAAGCUGUACCAUUAUUCUACCAAAAACAUUCCCAGCCCCAAACAUCACAACCCUCCAACAGAGGAUUGAGCAUCA
B2: chr13:48664549:48664550:-_ENSG00000136146_ENST00000378586|hu_mus|FALSE|FALSE (ssRNA)
RNA: GGGAGUUCUACAGUCCGACGAUCCUGGUUUUCCUCUUCCAGCUGUAAUAGCUUCUGAUUUCUUGAAAUUGCAAGCAUUUCUAUGAGUUCCCUCGACAAGACCUCCAGAUCUUCCAGCGCAGACAGAAGCCGCUCUCGCGUACUCAACAGAGGAUUGAGCAUCA
B3: chr8:97153689:97153690:+_ENSMUSG00000050079_ENSMUST00000060389|mus_hu|motif|central (ssRNA)
RNA: GGGAGUUCUACAGUCCGACGAUCAUCUAGUAACAAUGUUAUAACAGCUGGUCCCAGUGGAUCUUCCAGUGGAAUAACUCGGAUUAAAGACUGGACAACAUCCAACCAUCCUUCAUCUGUUUCUGCCAUUUCGUGUAAUGUUAUCAACAGAGGAUUGAGCAUCA
B4: chr5:60455605:60455606:-_ENSG00000188725_ENST00000339020|hu_hu|motif|central (ssRNA)
RNA: GGGAGUUCUACAGUCCGACGAUCAUUUACAAUAACUGUCAAUAGAAACCUAUAAACUUCUACACCCACGCCUAAAAGUUACGGUAGUAUUGAGGUCAGAACUAACAUGAUUCUUCCAUUUGGUCAAAUUUCAUUUACUAAAUCCAACAGAGGAUUGAGCAUCA
B5: chr17:60770872:60770873:+_ENSG00000011028_ENST00000303375|hu_hu|hu_hu_hu_mus_True|38_48 (ssRNA)
RNA: GGGAGUUCUACAGUCCGACGAUCUCUUUAAAAAAAAAAAAAAAAAGACAAACAAUAAUAGCACAUUUCGAGAAUCAAGAACUACAAAGAAAGGGCCAUGUCUUCGAUUUGUUCACAUCGUCCUGCACUGGGACACGGGGACUGCAACAGAGGAUUGAGCAUCA
B6: 102155536_102155860_195_CDS_ENSMUSG00000059995_ENSMUST00000137387|mouse|control|control (ssRNA)
RNA: GGGAGUUCUACAGUCCGACGAUCGCAAUUGGGGCAAACACACUCCUUGCUCUUCCACUGGUUGAAAACCUGUCCAAAGAUGUCCAACCCAGGCUGGUCCACGAUCUCAAAAUCCUUCAUGCUGUCAGGAUCCGUAUCAUCCAGCAACAGAGGAUUGAGCAUCA
B7: chr3:10015032:10015033:+_ENSMUSG00000027533_ENSMUST00000029046|mus_mus|mus_mus_mus_hu_True|18_58 (ssRNA)
RNA: GGGAGUUCUACAGUCCGACGAUCGUUUUUACCAUCACAAGUGAUGAUACAAUCUGGCUUGGCCAUUGCGCCCAUUUUCCUAAGAGCUAUUCCCACUCCUAGCUCCUUCAUGUAUUCCUCAAAGCCGUUGCUGUCCACCAGGCGCAACAGAGGAUUGAGCAUCA
B8: chr16:94690093:94690094:+_ENSMUSG00000040785_ENSMUST00000117648|mus_hu|mus_mus_mus_hu_True|18_48 (ssRNA)
RNA: GGGAGUUCUACAGUCCGACGAUCGGGCUGGGAUGACGGACACACAGCCUCGAUUCCAGGGGGAAAAAGUCUUAGUCGAUACUAAUUUAAAAAGUAUAAUGAUUUUUGAAAAUCAGAUGUAGAUUAAAAAAGAUGAAAAGCAAACAACAGAGGAUUGAGCAUCA
B9: chr19:30213842:30213843:-_ENSMUSG00000024827_ENSMUST00000025778|mus_hu|FALSE|FALSE (ssRNA)
RNA: GGGAGUUCUACAGUCCGACGAUCAAUAUGCUCCAGCCCAUGGGAACCAUGGUAGAUUGCAAACAUGGCAGCCAUAUUCGCCAAGAGGGCCUGAGCUGUACAGAUGUUGCUGGUAGCCUUGUCUCUCCGAAUGUGUUGCUCCCUCAACAGAGGAUUGAGCAUCA
B10: chr5:100395146:100395147:-_ENSMUSG00000000568_ENSMUST00000112939|mus_hu|FALSE|FALSE (ssRNA)
RNA: GGGAGUUCUACAGUCCGACGAUCAGAAAGGCCACCAACAAAAAUUUUUUUAACCGGCUCUUUUGUUUUCAUGGCUUUGGCCCUUUUAGGAUCAAUCACCUUCCCAUUCAAUUUAUGUUCUUUUUGAUCCAUGACCUUAUCUACCAACAGAGGAUUGAGCAUCA
B11: 135203627_135203747_3480_CDS_ENSG00000107290_ENST00000224140|human|control|control (ssRNA)
RNA: GGGAGUUCUACAGUCCGACGAUCAUUUGUAGUAUUGGCUAUAGGAGCCAAACAUUUUUUCUCACCAUCUUGAACUGAAUUAUUAUCGUCUGGAUGAUCUUGCCAAACUGAAAACACUUCAGAUGAACUUUCAAACUCAAAACACAACAGAGGAUUGAGCAUCA
B12: chr10:70028019:70028020:-_ENSMUSG00000037747_ENSMUST00000162251|mus_hu|motif|central (ssRNA)
RNA: GGGAGUUCUACAGUCCGACGAUCAGCCUUCUCCAACAAUUGUGUUAGAUGAACUUUUGAAUAGUCUGCGGUGCAGAAUUCGGUAAUUUCACUCCAUUCAGACACAACAUAAUCACCAUCAACUUGUUUUGAGGCAGUCUGCACCAACAGAGGAUUGAGCAUCA
B13: chr4:140556289:140556290:+_ENSMUSG00000036622_ENSMUST00000037055|mus_mus|mus_mus_mus_hu_False|88_88 (ssRNA)
RNA: GGGAGUUCUACAGUCCGACGAUCGAUGGAGCUCACCAGGCCCCCUUUGGCUGUGCAGAACCCUGUGCGGGUCACCACUGCCAGGACGUGCGGUCCCACAUAGGCCCGGGCCUGCAAGAUGAGGGUCCCGCAGAAGAGUGUGUGCAACAGAGGAUUGAGCAUCA
B14: chr7:54825262:54825263:-_ENSG00000132432_ENST00000352861|hu_hu|hu_hu_hu_mus_False|1_88 (ssRNA)
RNA: GGGAGUUCUACAGUCCGACGAUCCUGCCGGCUGGGCUCCACAAACUUUACCUGAUCAUCCAUGUUUGUUGGAUGGCGGAUUGAGAGCGUAGAGACACGUAGCUCAGGAGAGAACCGAGCCCAACGGAACCGGAAGCGGAAUCCCAACAGAGGAUUGAGCAUCA
B15: chr14:61442442:61442443:-_ENSG00000126814_ENST00000261249|hu_hu|FALSE|FALSE (ssRNA)
RNA: GGGAGUUCUACAGUCCGACGAUCUAUGGGAAGGAACUCACUGCUGCAUGGCUGCCCAUCUAAAAGCCACUUGAAAGCACUAAGAAACUCUAUAGCUUUUGCUGGCAAGUUCAUGACAACGUGCACAGAGGGUUUUCUUUCUUUCAACAGAGGAUUGAGCAUCA
B16: chr11:46405157:46405158:+_ENSG00000110492_ENST00000395566|hu_hu|hu_hu_hu_mus_False|78_98 (ssRNA)
RNA: GGGAGUUCUACAGUCCGACGAUCCCCUCCCCACUUUGGCUGGGGAGUGUGGGCGUGAAGGCAGGGCCGUGAUUGACAGAGCUGACAGGAAGACAAAAGGCACUGGUGGGUUAUAUCUUGGGCCUGUGGGAGAGGAGGGCUCCGCAACAGAGGAUUGAGCAUCA
B17: chr7:149068622:149068623:-_ENSMUSG00000025139_ENSMUST00000001950|mus_hu|mus_mus_mus_hu_False|28_58 (ssRNA)
RNA: GGGAGUUCUACAGUCCGACGAUCGUGAGGCCUCUGAGUGUGGCUUGUGGUCUGUCCUGGGUUAGAGUUGUUAAUAUCACUAAGUGGACCAUCUAGAACGUUCCAGUCUGCCUGACUACCUUCAUUCCCAAUGGAGAAGAAAUCCAACAGAGGAUUGAGCAUCA
B18: chr1:17152557:17152558:+_ENSMUSG00000025777_ENSMUST00000026879|mus_hu|motif|central (ssRNA)
RNA: GGGAGUUCUACAGUCCGACGAUCAUACCCACUACCCAGCCAAUACCUAGACAUGCUAGUGAUUAGCUGGGACAUUCACCGGAAUGCCACUUAUGUGUAUGAAGAGGGCUACAGAUGCCACCCUUUCUACCUCCCACUGACUGGCAACAGAGGAUUGAGCAUCA
B19: chr11:87044496:87044497:-_ENSMUSG00000046442_ENSMUST00000055438|mus_hu|FALSE|FALSE (ssRNA)
RNA: GGGAGUUCUACAGUCCGACGAUCUGGAAUAUCAUGAGUCUUUCUGAGCUUCCUCAUGUUUUCACUGUACCCUUUCCAACUAUUUUGCCUCCAUGGCAGAGAACUUCUUAUCCUAUUUCUCUUCCCACUUCCAGUAAGUGAGGACAACAGAGGAUUGAGCAUCA
B20: chr9:14812383:14812384:-_ENSMUSG00000031934_ENSMUST00000164273|mus_mus|mus_mus_mus_hu_True|48_78 (ssRNA)
RNA: GGGAGUUCUACAGUCCGACGAUCAUAGCCCAGGUAGAUACACGCUAACAGUAUAAUCACAAAUGUCAGCAGGCGGCAGCUAAUGUAUUUCAUGAUUAAAUUAUUAGAAUUUUUCUUUGUCUUCAAGUACUGCUCCACAAUUGGCAACAGAGGAUUGAGCAUCA
B21: 52470271_52471310_1365_CDS_ENSMUSG00000028312_ENSMUST00000117280|mouse|control|control (ssRNA)
RNA: GGGAGUUCUACAGUCCGACGAUCGGCAUGUUUCAGCUUCAUCUGAGCCUGCUUGGCCUCAGUCUGAGCUUUGCUGAUAUCGUUUUUACAGGCUAUCAUCUGCCCAGCCAGAGUUGCUUCUGCUCCAUCUUCGUUACUGGACAACAACAGAGGAUUGAGCAUCA
B22: chr3:15292738:15292739:+_ENSG00000131375_ENST00000253693|hu_mus|FALSE|FALSE (ssRNA)
RNA: GGGAGUUCUACAGUCCGACGAUCCCAGUAAUAGCUGAGAGUUCUCAAUCAUUGGAGUUGUGUUGUCUUGAUGGGGACAGUACUAUUAAAGUCCAAGAAAAAAGGUCCUUCUUGUUUAGGCAAAAAAGUACUAGGGAUGAUAUUCAACAGAGGAUUGAGCAUCA

Target: T1, UNK ZnF1-3
Assay: nsRBNS (natural sequence RNA bind-n-seq); RBNS binding buffer (assumed for nsRBNS): 25 mM Tris pH 7.5, 150 mM KCl, 3 mM MgCl2, 0.01% Triton X-100, 500 ug/ml BSA, 20 U/ml SUPERase-In, 4 C; UNK is unkempt and MSI1 is Musashi-1; names of the RNAs are library labels; protein concentration not given here; high values mean tight binding

Row | Binder | binding signal
1 | B1 | 1.39 enrichment R
2 | B2 | 0.815 enrichment R
3 | B3 | 0.734 enrichment R
4 | B4 | 0.784 enrichment R
5 | B5 | 2.95 enrichment R
6 | B6 | 0.831 enrichment R
7 | B7 | 0.529 enrichment R
8 | B8 | 0.978 enrichment R
9 | B9 | 1.3 enrichment R
10 | B10 | 1.27 enrichment R
11 | B11 | 0.778 enrichment R
12 | B12 | 1.32 enrichment R
13 | B13 | 1.17 enrichment R
14 | B14 | 0.926 enrichment R
15 | B15 | 1.07 enrichment R
16 | B16 | 1.75 enrichment R
17 | B17 | 0.85 enrichment R
18 | B18 | 0.685 enrichment R
19 | B19 | 0.469 enrichment R
20 | B20 | 2.23 enrichment R
21 | B21 | 0.368 enrichment R
22 | B22 | 1.08 enrichment R
